# Measurements from article PMC6919601, “Identification of Plasmodium dipeptidyl aminopeptidase allosteric inhibitors by high throughput screening” (PLoS ONE, 2019).
# The campaign covered roughly 110,000 compounds. About 230 (0.21%) showed an effect of 50% or more. This is one part of the list.
# Target: DPAP1 (Plasmodium falciparum, UniProt Q8IIJ9)
# Assay: primary screen, percent inhibition; read by cleavage of a fluorogenic dipeptide substrate; higher = more effect of the substance
# Set-up: species or system P. falciparum D10 trophozoite lysates; single well
# 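Note: 30 min substrate incubation versus DMSO and 10 µM JCP410 controls.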
# DPAP1, sequence (Q8IIJ9 whole entry, looked up): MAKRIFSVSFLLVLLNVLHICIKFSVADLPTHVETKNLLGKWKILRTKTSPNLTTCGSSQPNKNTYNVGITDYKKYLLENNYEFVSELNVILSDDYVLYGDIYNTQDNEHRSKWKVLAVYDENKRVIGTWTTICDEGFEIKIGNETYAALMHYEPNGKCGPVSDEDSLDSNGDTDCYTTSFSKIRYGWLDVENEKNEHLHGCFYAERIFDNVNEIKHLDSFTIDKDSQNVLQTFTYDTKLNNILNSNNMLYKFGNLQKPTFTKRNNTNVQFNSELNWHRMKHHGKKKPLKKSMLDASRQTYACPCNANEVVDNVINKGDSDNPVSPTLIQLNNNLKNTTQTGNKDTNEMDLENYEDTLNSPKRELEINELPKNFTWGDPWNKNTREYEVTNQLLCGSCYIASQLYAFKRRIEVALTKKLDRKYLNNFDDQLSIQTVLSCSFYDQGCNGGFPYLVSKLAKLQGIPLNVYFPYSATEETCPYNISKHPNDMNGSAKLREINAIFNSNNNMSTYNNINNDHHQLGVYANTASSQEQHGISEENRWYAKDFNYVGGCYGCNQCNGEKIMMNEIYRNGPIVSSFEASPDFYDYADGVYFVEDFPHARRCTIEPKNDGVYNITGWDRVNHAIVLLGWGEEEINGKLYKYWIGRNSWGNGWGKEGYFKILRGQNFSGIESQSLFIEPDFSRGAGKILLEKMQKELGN
row,SMILES,% Inhibition @ 10 uM
1,CC(C)C[C@H](NC(=O)c1cc(N2CCOCC2)nc(N2CCOCC2)n1)C(=O)NCC#N,-3.48%
2,O=C(/C=C/Nc1cccc2cccnc12)c1cccs1,-1.06%
3,CCOC(=O)C1=CN(Cc2ccc(F)cc2)C=C(C(=O)OCC)C1c1ccccc1Br,-1.48%
4,COc1cc(/C=C2N=C(/C=C/c3ccc(Cl)cc3)OC/2=O)cc(OC)c1OC,2.77%
5,O=C1N=C(N2CCOCC2)S/C1=C\c1ccccc1F,19.5%
6,CN(C)c1nc(N(C)C)nc(N(C#N)Cc2ccc(Cl)cc2)n1,2.57%
7,O=C(Nc1ccc(Cl)cn1)c1cnn(-c2ccccc2)c1-n1cccc1,2.58%
8,COc1ccc(C2Nn3c(nnc3-c3ccccc3)SC2C(=O)NCC2CCCO2)cc1 (centres unmarked),0.0289%
9,O=C(NC1CCCCC1)c1nc[nH]c1C(=O)Nc1ccccc1,-14.1%
10,COc1cccc(C(=O)c2cn(CC(N)=O)c3nc(C)ccc3c2=O)c1,-2.25%
11,O=C(O)C#Cc1ccc2ccccc2c1,2.31%
12,COc1ccc2nc(NC(=O)CCn3cnnn3)sc2c1,-2.05%
13,COc1ccc(-c2cc(-c3ccccc3)nc(OC)n2)cc1,-2.35%
14,Cc1nn(C(C)C(=O)N2CC(C)CC(C)C2)c(=O)c2c1sc1ccccc12 (centres unmarked),-1.81%
15,Clc1ccc(CN2CCC(N3CCCCC3)CC2)cc1,-2.21%
16,O=S(=O)(Nc1cccc(-c2cn3ccsc3n2)c1)c1ccc(F)cc1,-0.366%
17,COc1cc(NC(=O)Cn2nc(C(F)(F)F)cc2C2CC2)c(C(C)=O)cc1OC,2.08%
18,CC1CCCN(c2c3c(nc4ccccc24)CCCC3)C1 (centres unmarked),0.317%
19,CCOC(=O)c1cc(-c2ccccc2)n(CCC(=O)N2CCCC(C)C2)c1C (centres unmarked),1.2%
20,O=C1NC(=S)N(C2CCCCC2)C(c2ccccc2)C1c1ccccc1 (centres unmarked),1.87%
21,Cc1nc2sc3c(c2c2nncn12)CCC3,2.47%
22,CCOc1ccc(/C=C2\C(=O)C3CCN2CC3)cc1,2.44%

row,SMILES,% Inhibition @ 10 uM
1,O=C(Nc1nnc(S(=O)(=O)N2CCOCC2)s1)c1ccccc1Br,-1.72%
2,CC(C)C[C@H](NC(=O)c1cc(-c2ccccc2)cc(-c2ccccc2)c1)C(=O)NCC#N,1.71%
3,O=C(c1cc2ccccc2s1)N1CCCCC1,-2.6%
4,CN(C)CCCN(CCCN(C)C)Cc1ccc(F)c(F)c1,0.0792%
5,Cc1nc(-c2ccccc2)c2c(O)cc(-c3ccccc3)nc2n1,-4.58%
6,CCN1CCN(CC(O)COc2c(C)cccc2C)CC1 (centres unmarked),-2.37%
7,CC(NC(=O)c1cccs1)C(c1cccs1)N1CCN(C)CC1 (centres unmarked),0.66%
8,CC(C)(C)C1=CC(=O)C(=O)C(C(C)(C)C)=C1,1.84%
9,Cc1ccc(S(=O)(=O)Cc2ccc(C(=O)NCc3ccccc3Cl)o2)cc1,-3.32%
10,O=C(O)[C@@H]1CCCN1Cc1ccccc1,0.503%
11,Cc1c(CC(=O)NCc2ccc(Cl)cc2)c(=O)oc2c(C)c(O)ccc12,5.68%
12,COc1ccccc1N1C(=O)CC(N2CCN(Cc3ccc4c(c3)OCO4)CC2)C1=O (centres unmarked),-4.89%
13,CCOc1ccc(CNS(=O)(=O)c2ccc3oc(=O)c4ncn(C)c4c3c2)cc1OC,-7.88%
14,O=C1N=C(N2CCOCC2)S/C1=C/c1ccccc1,4.39%
15,Cc1ccc(C(C)C)c(OCC(O)CNC(C)C)c1 (centres unmarked),3.82%
16,Cc1ccc(C2CC(=O)NC(SCCc3ccccc3)=C2C#N)cc1 (centres unmarked),0.726%
17,COc1cccc(C(=O)NC2(C(F)(F)F)C(=O)Nc3c2c(=O)[nH]c(=O)n3-c2ccccc2)c1 (centres unmarked),-1.28%
18,O=C(O)C(Cc1ccccc1)n1cccc1 (centres unmarked),-2.17%
19,Cc1ccccc1CN1CCN(c2ccc([N+](=O)[O-])cc2)CC1,-1.86%
20,COc1ccc(-c2cc(-c3nnc(N)o3)no2)cc1,-3.53%
21,COc1ccc(-c2c3c(=O)n(C)c(=O)n(C)c3cn2-c2ccc(Br)cc2)cc1,-5.85%
22,Cc1c(C(=O)N2CCOCC2)oc2c1-c1nn(CC(=O)NCC(C)c3ccccc3)cc1CC2 (centres unmarked),3.88%

row,SMILES,% Inhibition @ 10 uM
1,CC(NC(=O)CCCC(=O)NC(C)c1ccccc1)c1ccccc1 (centres unmarked),-4.43%
2,Cc1ccc(-c2ccc(/C=C3\SC(N4CCOCC4)=NC3=O)o2)cc1,12.2%
3,COc1cc(-c2nc(Cc3ccccc3Cl)no2)cc(OC)c1OC,1.62%
4,CCCNC(=O)CCCn1nc(C)c2sc3ccccc3c2c1=O,0.39%
5,CCOC(=O)N1CCC(NC(=O)c2cnn3c(C(F)(F)F)cc(-c4ccc(C)cc4)nc23)CC1,-6.13%
6,COc1cccc(C(CC(=O)O)NS(=O)(=O)c2ccc(F)cc2)c1OC (centres unmarked),-5.64%
7,Nc1c(NCc2ccccc2)c2ccccc2sc1=O,6.7%
8,CCC[C@@H](NC(=O)OCc1ccccc1)C(=O)c1noc(C(=O)NCc2ccc(C)o2)n1,19.1%
9,COc1ccc(S(=O)(=O)c2c(SC)nn(Cc3cccc(F)c3)c2N)cc1,-2.48%
10,C[C@H]1Oc2ccccc2C(=O)C1C(=O)c1ccccc1 (some centres unmarked),2.36%
11,COc1cccc(C2CC3=NC(C)=C(C(=O)OCCOC(C)C)C(c4ccc(C)s4)C3=C(O)C2)c1 (centres unmarked),6.97%
12,COCCN(CCOC)c1ncnc2c1c(-c1ccccc1)cn2-c1ccc(Cl)cc1,0.925%
13,COc1ccc(CCNC(=O)COc2cc(Cl)ccc2Cl)cc1OC,-6.06%
14,O=C(O)COc1ccc(Br)cc1/C=C1/SC(=O)N(CC(=O)N2CCCC2)C1=O,-1.98%
15,CCn1nc(C(=O)Nc2ccccc2C)c(Cl)c1Cl,-6.92%
16,CCC1CCCCN1C1CC(=O)N(c2ccc(Br)cc2)C1=O (centres unmarked),3.69%
17,CCOC(=O)c1sc(N2C(=O)c3oc4ccccc4c(=O)c3C2c2cccnc2)nc1C (centres unmarked),5.89%
18,Cc1sc(NC(=O)CCc2ccccc2)c(C(=O)O)c1C,-1.36%
19,CCC1CCC(C(=O)N2CCOCC2)CC1 (centres unmarked),-5.31%
20,Cc1ccccc1C(=O)Nc1ccccc1C#N,3.24%
21,CCc1ccc(-c2nc(CN3CCC(C(=O)N4CCN(c5ccccn5)CC4)CC3)c(C)o2)cc1,-1.05%
